# Test results taken from article PMC4336329 (PLoS ONE, 2015).
# The campaign covered roughly 310,000 compounds. About 14,000 (4.5%) showed an effect of 50% or more. Effects have a minus sign here. The list shows a part of the results.
# Target: human ether-à-go-go-related gene (hERG) potassium channel (human, UniProt Q12809)
# Assay: primary screen, population patch clamp on CHO cells stably expressing hERG
# 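Further: peak tail current of the secondary pulse compared with the same well before compound.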
# Sequence of human ether-à-go-go-related gene (hERG) potassium channel (Q12809 whole entry, looked up): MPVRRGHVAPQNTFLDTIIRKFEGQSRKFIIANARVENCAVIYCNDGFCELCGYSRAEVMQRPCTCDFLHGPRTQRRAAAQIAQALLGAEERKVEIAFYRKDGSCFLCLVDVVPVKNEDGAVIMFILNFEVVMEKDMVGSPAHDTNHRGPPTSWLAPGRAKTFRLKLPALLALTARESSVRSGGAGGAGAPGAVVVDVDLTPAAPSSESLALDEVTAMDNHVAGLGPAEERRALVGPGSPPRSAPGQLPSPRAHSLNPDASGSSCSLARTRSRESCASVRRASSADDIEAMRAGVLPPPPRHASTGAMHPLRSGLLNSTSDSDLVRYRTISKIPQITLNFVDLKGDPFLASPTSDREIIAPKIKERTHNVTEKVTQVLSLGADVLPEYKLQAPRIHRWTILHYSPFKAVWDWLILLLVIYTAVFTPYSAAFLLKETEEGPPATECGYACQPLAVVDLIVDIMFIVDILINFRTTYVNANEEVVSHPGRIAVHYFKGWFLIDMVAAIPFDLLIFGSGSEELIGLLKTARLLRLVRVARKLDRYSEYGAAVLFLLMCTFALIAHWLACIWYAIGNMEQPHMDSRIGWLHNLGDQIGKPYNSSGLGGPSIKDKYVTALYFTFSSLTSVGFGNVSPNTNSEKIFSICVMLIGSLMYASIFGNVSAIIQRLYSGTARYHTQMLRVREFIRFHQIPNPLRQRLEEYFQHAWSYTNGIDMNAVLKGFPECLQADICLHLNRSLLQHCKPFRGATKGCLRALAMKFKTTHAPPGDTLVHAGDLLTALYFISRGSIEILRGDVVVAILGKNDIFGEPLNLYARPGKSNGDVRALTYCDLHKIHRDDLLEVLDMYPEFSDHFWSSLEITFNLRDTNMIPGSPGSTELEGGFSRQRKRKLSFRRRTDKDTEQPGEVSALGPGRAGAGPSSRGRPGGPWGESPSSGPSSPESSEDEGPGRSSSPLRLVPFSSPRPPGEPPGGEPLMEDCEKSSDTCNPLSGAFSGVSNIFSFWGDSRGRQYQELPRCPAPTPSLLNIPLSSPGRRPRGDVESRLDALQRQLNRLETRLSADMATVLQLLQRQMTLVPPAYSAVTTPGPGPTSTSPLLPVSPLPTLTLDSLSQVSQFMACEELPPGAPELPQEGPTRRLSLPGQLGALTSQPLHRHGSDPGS
row,SMILES,"hERG current change (%, negative = inhibition) at 10uM [%]"
1,CCOC(=O)Cc1csc(NC(=O)/C=C/c2ccc(OC)cc2)n1,19.7
2,COc1cc(O)c(C(CCN2CCCCC2)c2cc(OC)c(OC)c(OC)c2)c(OC)c1 (stereo not shown),4.24
3,O=C(NCCOC(=O)c1ccc(Cl)cc1)c1ccc[nH+]c1.[Cl-],-24.2
4,NNC(=O)c1sc2cc(C(F)(F)F)cnc2c1-c1cccnc1,25.7
5,CCc1ccccc1NC1=CC(=O)CC(C)(C)C1,3.98
6,C/C(CC1CC(COCCC(C)C)OC1=O)=N\NC(N)=S (stereo not shown),4.37
7,CCN(CC)C(=O)COc1ccc(Br)cc1Cl,-11.8
8,Cc1ccc(C2(CC(=O)Nc3nccs3)CCOC(C(C)C)C2)cc1 (stereo not shown),-11.5
9,COc1cccc(/C=C/C(=O)OCC(=O)Nc2ccc(Cl)c(S(=O)(=O)N(C)C)c2)c1OC,2.82
10,CC(C)C(O)(CC#CCN1CCCC1)c1ccccc1.Cl (stereo not shown),11.3
11,Cc1cc(-c2nn3c(C)nnc3s2)ccc1NC(=O)C(C)(C)C,10.7
12,O=C(NCc1ccc(OC(F)(F)F)cc1)C12CN(Cc3ccccc3)CC1C(c1cccc([N+](=O)[O-])c1)=NO2 (stereo not shown),18.5
13,O=C(NCCCN1CCCC1)c1ccc2c(c1)N(Cc1cccc(Cl)c1)C(=O)c1ccccc1S2=O (stereo not shown),-15.6
14,COc1ccc(N2C(=S)NC3N2C(=S)NC3(C)c2ccccc2)cc1 (stereo not shown),8.31
15,COc1ccc2oc(=Nc3cccc(F)c3)c(C(N)=O)cc2c1,22.3
16,C/C(=N/NC(=O)c1ccoc1C)c1ccc(N2CCOCC2)cc1,-10.2
17,Cc1ccccc1COc1ccc(-c2nnn(CC(=O)O)n2)cc1,20.2
18,C/C=C/C(=O)Nc1cccc(C2=NOC3(C2)C[C@@H](C(N)=O)N(C(=O)c2cc([N+](=O)[O-])cc([N+](=O)[O-])c2)C3)c1 (stereo partly shown),20
19,COc1ccc(-c2nn(-c3ccccc3)cc2/C=C2/SC(=S)N(Cc3ccco3)C2=O)c(C)c1,8.73
20,Cc1nc2c(cc1C(=O)N/N=C/c1ccc(O)c(O)c1)c(=O)n(C)c(=O)n2C,-1.43
21,Cc1cccc(N(Cc2ccccc2)C(=O)c2ccc(S(C)(=O)=O)cc2)c1,-2.9
22,COc1ccc(C(CCNCc2ccccc2F)c2ccc(F)cc2)cc1 (stereo not shown),-75.5
23,CC(Oc1cccnc1[N+](=O)[O-])C(=O)Nc1ccc(Cl)cn1 (stereo not shown),-16.6
24,Cc1ccc2[nH]c(=O)c(C(c3nnnn3C(C)(C)C)N(Cc3ccco3)CC3CCCO3)cc2c1 (stereo not shown),8.84
25,COc1ccc2c(c1)c(C(C)=O)c(C)n2-c1ccccc1OC,-1.09
26,CC(C)CN(C(=O)COC(=O)/C=C/c1ccccc1)C1CCS(=O)(=O)C1 (stereo not shown),-10.7
27,COc1ccc(-c2nn(CCC#N)cc2C(=O)Nc2ccc(C(C)=O)cc2)cc1,6.39
28,CCOC(=O)c1c(C)c(C(=O)NCc2cccnc2)c(C)n1CC,4.72

row,SMILES,"hERG current change (%, negative = inhibition) at 10uM [%]"
1,Fc1ccccc1OCCSc1nnnn1-c1ccccc1,-10.1
2,C[C@@H]1NC(=O)/C(=C\c2ccccc2Br)NC1=O,10.5
3,C/C(Cl)=C/Cn1c(NCCN(C)C)nc2c1c(=O)n(C)c(=O)n2C,-26.9
4,Nc1nc(NCCOCCO)nc(N2CCCCCC2)c1[N+](=O)[O-],-8.23
5,CN(CC(=O)Nc1c(Cl)cccc1Cl)C(=O)c1sccc1-c1ccccc1,-8.18
6,CCOC(=O)C1CCN(c2ncnc3c2c(-c2ccccc2)cn3-c2ccccc2)CC1,18
7,CCOC(=O)C1=C(C)Nc2nc(C)nn2C1c1cc(OC)ccc1OC (stereo not shown),7.1
8,CN(C)CCCNC(=O)COc1ccc(Br)cc1Cl,-20.7
9,COc1ccc(CCNC(=O)c2n[nH]c3ccccc23)cc1,38.5
10,O=C(OCC#CCSc1nnc(-c2ccccc2)o1)c1cccs1,-17.7
11,O=Cc1ccc(-c2ccc(Cl)cc2Cl)[nH]1,5.18
12,CCCc1nnc(NC(=O)CC(=O)Nc2ccccc2C(=O)O)s1,14.1
13,O=C1C=C(c2ccc(C(=O)O)cc2)C[C@@H](c2ccc(Cl)cc2)C1,18.2
14,Cc1nn2c(=O)cc(COC(=O)c3ccc(S(=O)(=O)N4CCCCC4)cc3)nc2s1,-3.51
15,CC(=O)Nc1ccc(OCCOc2ccc([N+](=O)[O-])cc2)cc1,0.991
16,Cc1ccc(C(=O)NCCCN2CCOCC2)cc1Cl,8.74
17,CN(C)c1cccc(C(=O)NCC2CCCO2)c1 (stereo not shown),6.93
18,COc1ccc(N2CCN(C(=O)c3oc4ccccc4c3NC(=O)Cc3cccc(OC)c3)CC2)cc1,-30.2
19,COc1ccc(NC(=O)/C(C#N)=C/c2ccc(OCc3ccccc3F)cc2)cc1,5.01
20,O=C1c2ccccc2C(=O)N1Cc1ccc2c(c1)OCO2,9.36
21,CC(Oc1cccc(Cl)c1)C(=O)Nc1ccccc1C(=O)N1CCCCC1 (stereo not shown),-7.54
22,CC(=O)Nc1ccc(S(=O)(=O)Nc2nnc(C(C)C)s2)cc1,6.53
23,Cc1ccc(O)c(C(=O)c2cc(C#N)c(=O)n(CC3CCCO3)c2)c1 (stereo not shown),-28.7
24,Cc1cc(S(N)(=O)=O)ccc1N=Cc1c(O)n(-c2ccccc2)c(=O)[nH]c1=O,12.1
25,Cc1cc(C)c(C#N)c(SCC(=O)Nc2ccccc2C)n1,12.7
26,O=C(CSc1ccc(-c2ccccc2)nn1)NCC1CCCO1 (stereo not shown),9.38
27,COC(=O)c1ccc(N2CCN(C)CC2)c(NC(=O)COc2cccc(C)c2)c1,-18.9
